The list shows a part of the results. At the low end of the ranking the order means little.
The sequences below were run against SIX1 homeodomain (reference allele) (UniProt Q15475) (assay: universal protein binding microarray). Conditions: Universal all-10-mer PBM (8x60K, AMADID 030236), 300 nM GST-tagged protein, Alexa Fluor 488 anti-GST; buffer, salt, pH and temperature not stated; high values mean tight binding; most listed sequences are background and not binding sites; double strand, one strand shown.

Row | Sequence | binding signal [E-score]
1 | CAGAGATG | 0.0747
2 | GCCGCACA | -0.224
3 | GTTTATCA | -0.0874
4 | CCTTCCCG | -0.0675
5 | ATTCAAGG | -0.0934
6 | CGGACGGC | -0.0951
7 | AACTACGT | -0.119
8 | ACCTCTCT | -0.142
9 | CTAACTTC | -0.273
10 | ATTTTCAC | -0.189
11 | AAGGCCGA | -0.00507
12 | CCAAATGA | -0.0119
13 | CAACTCTC | -0.21
14 | CACCTGCC | -0.00262
15 | ACTATGGC | -0.186
16 | GAATTGAA | -0.122
17 | GCCACAGA | -0.232
18 | CGCCCGTA | 0.069
19 | ATTGCCCG | -0.0149
20 | TGGAGTAA | 0.112
21 | GCTGCGAC | -0.244
22 | AAGTCAAT | -0.188
23 | CCCACTAG | -0.152
24 | GTACTTTA | -0.0635
25 | GAAAGTGC | -0.389

Row | Sequence | binding signal [E-score]
26 | CCCATGCA | -0.0904
27 | ACCATTAT | -0.0306
28 | ACGCTTAT | -0.0636
29 | AACTGCAT | -0.189
30 | ACGCAATG | -0.0771
31 | GAACAGGA | -0.121
32 | ACGACGCA | -0.0219
33 | CCCCTCGG | 0.0987
34 | CATGCGGA | 0.11
35 | ACTCCGTG | -0.024
36 | ACAGGAGC | -0.148
37 | ACGAGTTA | -0.0416
38 | TACTTCAA | 0.0978
39 | CGCCTTAA | -0.013
40 | CCATATTC | 0.0903
41 | CTTTAACC | -0.18
42 | ATGGTTAG | -0.00919
43 | AATGTAAT | -0.0195
44 | CCCCAACG | -0.00121
45 | CCATCAAG | -0.179
46 | CGGTTGGC | 0.0734
47 | CTTCTCGA | -0.164
48 | AAGCAATC | -0.0222
49 | ATCTGACG | 0.0641
50 | CAGACAAA | -0.171

Row | Sequence | binding signal [E-score]
51 | AAGTGATG | 0.0598
52 | CTTCGCTC | -0.0327
53 | CGGATAAC | 0.339
54 | GGATACCC | 0.484
55 | CGGGATTA | 0.263
56 | CCACACGA | -0.108
57 | CTATGGAC | -0.196
58 | GAGATCGC | 0.27
59 | CGGTTTAC | 0.00887
60 | AGGAGCAT | -0.206
61 | AGGATCGG | 0.32
62 | ACTGAGCC | 0.0866
63 | CCGTTCGA | 0.0582
64 | TTAAATAA | 0.0113
65 | CCAGTAAA | -0.0212
66 | AATGTACG | -0.218
67 | GGGCAAAC | -0.0994
68 | CAGGTTCG | -0.0133
69 | CATATGGG | 0.179
70 | CGTACTTC | 0.0949
71 | ACAGTAAG | -0.0784
72 | CGAGCACC | -0.0309
73 | TCCAGAGA | -0.0102
74 | GAGTAACA | -0.154
75 | AGGTATAA | 0.242

Row | Sequence | binding signal [E-score]
76 | GACAGACA | -0.0859
77 | GAATTGGC | -0.0893
78 | ATAACCTA | 0.0152
79 | CGGAACCG | -0.186
80 | CCATATAG | 0.211
81 | ATTAAAGC | -0.014
82 | ATCTAAGG | 0.179
83 | ACTGGTCT | -0.108
84 | AATCCTGG | -0.109
85 | AACACTTG | -0.157
86 | CCATGGAC | -0.0519
87 | TCGTCGCA | -0.0806
88 | CGATTCCC | 0.0811
89 | AAAGTCTG | -0.29
90 | ACGTGCCT | -0.189
91 | ACGAGAAT | 0.0373
92 | CTGTAGCA | -0.212
93 | CCCCTAGG | 0.045
94 | ATTATTTG | 0.0221
95 | TAGGGTGA | 0.0709
96 | ATGTATGA | 0.261
97 | CTGTGACA | -0.0932
98 | GCCAAGAC | -0.193
99 | AATGTGGT | -0.0608
100 | CTGCGCAA | -0.153

Row | Sequence | binding signal [E-score]
101 | ACCGAAAT | -0.0348
102 | CACTAACC | -0.186
103 | GTGTTAAA | 0.0247
104 | AAAGCGGG | -0.231
105 | ACTTGATA | 0.374
106 | AATTAGGC | -0.158
107 | CGTTTGGA | -0.0757
108 | ACCGGGCT | -0.0186
109 | CCAGTTTA | -0.0101
110 | TGTGCTAA | -0.124
111 | CACTCTCC | -0.00602
112 | AACCTAAG | -0.186
113 | CGGCGGGC | -0.00443
114 | GACCTGGA | -0.11
115 | CGCGAAGA | -0.128
116 | ACTCGTGC | -0.114
117 | AGATGTAT | 0.338
118 | ATTGATGG | -0.0372
119 | CCAACAAG | -0.211
120 | CCGCTCCA | 0.013
121 | CGCCGCCG | -0.219
122 | AGTCCCCA | -0.142
123 | CTTGATAA | 0.0645
124 | AGGGAAAG | -0.0705
125 | GCCACGGA | 0.0257

Row | Sequence | binding signal [E-score]
126 | GTGAGCTA | 0.0498
127 | AACGCATC | -0.0661
128 | AAGCGGAT | 0.306
129 | AGGGCTAA | -0.0541
130 | CAAGTGAA | -0.106
131 | GGCGGGAC | -0.236
132 | AGCGGTGA | -0.129
133 | TATTCGAA | -0.0987
134 | CGGTTATA | 0.135
135 | AACAATAA | -0.085
136 | ATGCGTAA | -0.136
137 | ACTTCTTG | -0.0674
138 | TAATAGCA | 0.0353
139 | GCGCGCAA | -0.0161
140 | TGTGCAAA | -0.306
141 | CTCGTGCA | 0.0718
142 | ACTTTGAA | -0.281
143 | TATGTGGA | -0.0388
144 | AGCTCCAG | -0.131
145 | CATGTTCG | -0.121
146 | AATTGTAG | -0.169
147 | CGTCATCC | 0.13
148 | CGTCTAGA | 0.0754
149 | GATATGAC | 0.357
150 | GATAGATC | 0.347

Row | Sequence | binding signal [E-score]
151 | AAGACGTA | -0.00305
152 | CTCATCTC | 0.158
153 | CACGGTTA | -0.141
154 | GATCGCAC | 0.253
155 | GGACTTAA | -0.175
156 | ATTGAGCA | -0.04
157 | AGAGTTGC | 0.0823
158 | GGGCCGTA | 0.15
159 | CAGATCGG | 0.296
160 | CAGTGACA | 0.0801
161 | GCCACCAC | -0.165
162 | CCGATCCC | 0.412
163 | CAGCTTGC | -0.231
164 | ATTCTCGA | -0.000975
165 | ACTTGAAC | -0.0757
166 | CCGCGAGG | 0.126
167 | AATATAGG | 0.0555
168 | CGACTACG | -0.245
169 | CGAAGGGC | -0.076
170 | AGAGCTCA | -0.0753
171 | CCTGGATC | 0.251
172 | CTTCAGTA | 0.0153
173 | CCGATCAC | 0.346
174 | GGGTTAGA | 0.16
175 | CCGTTTCG | -0.167

Row | Sequence | binding signal [E-score]
176 | AGGCGTAG | -0.12
177 | GCCCGGGA | 0.144
178 | GGCGCCTA | -0.233
179 | CCAAGCCG | 0.114
180 | ATACGCTC | 0.245
181 | ATTCGCTC | -0.139
182 | CTGACCGA | 0.0848
183 | CTCACATA | 0.065
184 | ATGAATCG | 0.0185
185 | CTGGACAC | 0.0465
186 | TATAGCCA | 0.224
187 | CCCCTTAA | -0.0594
188 | GAAGCTAC | -0.139
189 | TGTCAACA | 0.00955
190 | AAGTCATT | -0.348
191 | GAATATCC | 0.276
192 | CTCCCGCC | -0.158
193 | ACGGTCGG | -0.0321
194 | GCTGTACA | -0.107
195 | AGGGACGG | -0.0874
196 | GTTGCCCA | -0.15
197 | CAACTTAC | -0.118
198 | AGTCTTTA | -0.347
199 | CCGAGAAC | -0.0412
200 | ACGCGCAC | -0.219

Row | Sequence | binding signal [E-score]
201 | ATTATAAC | 0.0311
202 | GAAGGCGA | -0.114
203 | AGATACCA | 0.422
204 | ATCAAGCC | 0.0374
205 | GTGAAATA | 0.159
206 | CCCAGTCC | -0.0155
207 | GAATATGC | -0.104
208 | CTTGTTAA | -0.153
209 | TCCACGCA | -0.0189
210 | AAACTATC | 0.0862
211 | ACGGATTG | 0.179
212 | ATAAAGTA | 0.104
213 | CCCTGATA | 0.36
214 | GTGCAATA | -0.0945
215 | ACGTGCCC | -0.111
216 | CACGCCTA | -0.211
217 | AGAATAGC | -0.0838
218 | CACTTAGG | 0.00877
219 | AGACGGGC | 0.14

From article PMC10668032
